Measured values published in the RNAGym collection of RNA variant scans (doi:10.7554/elife.90254).
Read counts are not given, so values of variants with three or more changes are uncertain.

B1: LINE1-mini (parent)
chain: GGCAGAGCUCAACACAGCGUGGCAAAGUGGCUGUGGCUAGACUGCC

Variants of: B1
Assay: self-cleavage, relative activity (ratio to wild type); higher = more cleavage; in vitro, sequencing; the parent is a self-cleaving ribozyme

Variant	self-cleavage
G2A C15U C23A C42U	0.32
G2A C13G A14C	0.15
G2A G5A C8A C18U	2.24
G2A A24U U32G	0.12
G2A C8U C10G	0.01
G2A G5A C13U A41U C42G	0.58
G2A C15A A24G G33U	0.14
G2A C8U G19U A24U U28A U43G	0.05
G2A G5A U28G C31G G33A A39G G40U	0.09
G2A A25C G30A	0.44
G2A C15U G21U G30U C31U	0.08
G2A A12C C46A	0.05
G2A C15U C18U G27C A41G G44U	0.03
G2A C18U C37U C46G	0.05
G2A C10A C13U G21U	0.06
G2A C15U A16G C42U U43A	0.01
G2A A11U G33U	0.04
G2A A11G U20A G22U A24G G36U	0.02
G2A C10U U20G A24C C42A	0.06
G2A C37U A39C G40U	0.27
G2A C8U G40C G44U C45A	0.26
G2A C3U C45U	0.47
G2A A11C A24U A41C C45U	0
G2A C18U C31U	0.04

Variant	self-cleavage
G2A C10U G21C G22U	0.08
G2A A12U U38A A41C C46A	0.02
G2A A11G G30U G35U G44A	0.01
G2A A12C A16C U20A C37G A39U	0.02
G2A C18G C37U	0.1
G2A C10U A16U	0.06
G2A C8U A24G G44U C45G	0.13
G2A C18A G21U U32G A39U	0.07
G2A C8A G17U U20A A41C	0.52
G2A A12U C15G C18G A41C	0.1
G2A C3U C8A C10G	0.09
G2A A12C A14G G35A C37G	0.02
G2A G5A A14C C46A	0.28
G2A C31G C46G	0.12
G2A C15A C18U U28G G36A	0.01
G2A C3G G19U A39C A41C	0.1
G2A G5A A41G	0.3
G2A A11C G29C	0.06
G2A G5A C18G G36U C37U	0.3
G2A C13A G35A	0.06
G2A A6U C13U	0.84
G2A A16C C37U G40U	0.2
G2A C8U A14G C15G	0.54
G2A G5A U34C C37A	0.21

Variant	self-cleavage
G2A C31A U32G C45A	0.22
G2A C8U C10A A12U A14G G27U U28A G30U A39U	0.01
G2A C3G G7A C15A	0.3
G2A A16G G35U	0.55
G2A C13U C45G	0.2
G2A A11U C15A	0.04
G2A C3U G5A C13U A41C C46G	0.34
G2A A14U A24C A39G	0.11
G2A C3G C8G U9A G19C U28C G30A G36A	0.24
G2A A25U U32A	0.26
G2A C37A U38A G40A C42A	0.08
G2A A14U A16C U20G	0.1
G2A G5A C31U U38C	0.04
G2A C10U A26G U32G	0.11
G2A G5A G17A U28G A39C C46G	0.04
G2A C10A G36U G44U	0.03
G2A C3U A6C U20C U34G C37U	0.19
G2A C3U C13A A14C A41C	0.24
G2A C3A C10U A26C C31G U32A	0.18
G2A C8G G22A	0.03
G2A C8U G30A	0.48
G2A C8U U28G A39C C42U	0.47
G2A C10G C31U U32C	0.04
G2A C10U U28G G33U A39U	0.03

Variant	self-cleavage
G2A A12G A39U	0.13
G2A G5A G17A	0.21
G2A C10A G35U	0.03
G2A G5A A6U G27C	0.54
G2A C10A A24G A41G	0.02
G2A G5A C13G G17C	0.1
G2A A6G C15U U32C G40U	0.07
G2A C8A A16U G30U	0.88
G2A C23A U32C G35C	0.06
G2A A14U A39C	0.06
G2A A14C G29C G36A G40U	0.16
G2A C18G A26U C46U	0.03
G2A C13U A14U U20G A25U	0.3
G2A C10A U20A	0.11
G2A C13U G17A G44U	0.13
G2A C13U U32G U34G	0.06
G2A C10A G19U C37A A39C	0.02
G2A C13G G35C	0.13
G2A A25G C46A	0.82
G2A C13U C15A G19U U28C	0.11
G2A A6U A11U G36C	0.03
G2A C3A G29A C45G	1.17
G2A A6U G17U	1.48
G2A A11C U20G U28C C46U	0.01

Variant	self-cleavage
G2A A11G A14U A16U A25C G30U	0.01
G2A C37G U43C	0.16
G2A C3A C13G G22C A24G G44C	0.11
G2A A14U G27A	0.1
G2A C10A A12C U38C C42U	0.06
G2A A26C C37U	0.1
G2A C3A G19C	0.67
G2A C15A G17U G35U G40C A41U	0.09
G2A C8G U9C A11U C18A U38C C45U	0
G2A C3U C23U U32C U38G C42U	0.07
G2A C3G C18U	0.66
G2A A11G G36A C37G	0.03
G2A C13A C45A	0.25
G2A C3G A4G A26U	0.28
G2A C10A A14C G44A	0.04
G2A A12U G21C G30A C37A	0.97
G2A A16U C42A U43A	0.13
G2A C3A U32A C42G C46G	0.73
G2A A12C G36A	0.17
G2A C3A A6C	1.48
G2A C10A G27U U34G G44U	0.02
G2A C10U C15A G17A G36U G44C	0.04
G2A A6G G7U A41C	0.05
G2A C31U U38G C46A	0.08

Variant	self-cleavage
G2A C15A G21A G35U U43C	0.1
G2A C3U G19A A24G G40A C46G	0.4
G2A C10G C42U C46A	0.01
G2A C13G G33A	0.05
G2A C31U U32G G36U A41U	0.05
G2A G5C A11G G17A G30A	0.07
G2A C18U G19U A25C U34G C46U	0.1
G2A C3G A4U C31A G33C G35A	0.1
G2A A24U G44A C45U	0.45
G2A C10G C23G A25C	0.03
G2A C18A A24G U43A	0.09
G2A C10A G29U	0.05
G2A G5A G17A G22U G44U	0.04
G2A A14C C31A C45G	0.17
G2A A11U A26G C31U	0.06
G2A C15A C42G	0.37
G2A G5A U20A G35A	0.51
G2A A25G U32A C42U G44U	0.09
G2A C10U A12U A25C U28G G30C G35U G40U	0.02
G2A A25G U34C C42G	0.18
G2A A14G G17U	0.29
G2A A12G C18A C37U	0.2
G2A A12C G33C G40A	0.02
G2A C13A U20C G22C G35A U38A	0.12

Variant	self-cleavage
G2A A11U A14C G22U	0.03
G2A C3A G33C	0.1
G2A A16C G21A	0.02
G2A C3G C23U	0.59
G2A C3A U32C	1.26
G2A A14U G29C G35A	0.17
G2A A16C A24U A25G G40U	0.03
G2A A6G C8U U20G	0.19
G2A C23G G30A G33C	0.07
G2A C8U G30U G36U	0.66
G2A C10U G36A	0.3
G2A C13U G30A U32A	0.24
G2A C3U C18U U20C G33U C42U C46U	0.22
G2A C3A G17U C18G G19U U32G C45A	0.03
G2A C3U A41C	0.14
G2A A11G A12G G21C U28G	0.02
G2A A11U A16C	0.06
G2A C8G G30A U32G G36U C45G	0.05
G2A C10A U34A	0.05
G2A C8U A41U	0.38
G2A C8G A41C	0.06
G2A A11G C15U	0.05
G2A C8U G17U	0.41
